# Measured values as given in the supplement of paper PMC8728848.
# The list shows a part of the results.
# B1: Gal 1 (Canis lupus) (protein)
# chain: MACGLVASNLSLKPGQCLRVQCEVVPEAKSFVLNLGKDGDNLCLHFNPRFEAHGDVNTIVCNSKDGGAWGEELRESAFPFQPGTVTEVCISFDQADLTIKLPDGYTFKFPNRLNLEAISYLAADGDMKIKCLAFD
# Tests used:
# Assay in all cases: glycan array binding signal (z-score within array); higher = stronger binding
# Conditions in all cases: glycan notation: IUPAC condensed, linker removed
# [1] = biological target: Gal(b1-4)GlcNAc(a1-6)Gal(b1-4)GlcNAc
# Summary of the method: (§1)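 Glycan array data were curated from 3228 arrays in the Consortium for Functional Glycomics database and kept only where the protein sequence was available. Glycan names were converted to IUPAC-condensed notation, and columns mapping to the same glycan were averaged. The binding signal is a within-array Z-score, averaged across arrays of the same protein sequence at different concentrations or buffers and across linkers. Negative Z-scores can be read as non-binding.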
# [2] = biological target: Gal(b1-4)GlcNAc(b1-2)Man(a1-3)Man(b1-4)GlcNAc(b1-4)GlcNAc
# Summary of the method: as §1
# [3] = biological target: Gal(b1-4)GlcNAc(b1-2)Man(a1-3)[Gal(b1-4)GlcNAc(b1-2)Man(a1-6)]Man(b1-4)GlcNAc(b1-4)GlcNAc
# Summary of the method: as §1
# [4] = biological target: Gal(b1-4)GlcNAc(b1-2)Man(a1-3)[Gal(b1-4)GlcNAc(b1-2)Man(a1-6)]Man(b1-4)GlcNAc(b1-4)[Fuc(a1-6)]GlcNAc
# Summary of the method: as §1
# [5] = biological target: Gal(b1-4)GlcNAc(b1-2)Man(a1-3)[GlcNAc(b1-2)Man(a1-6)]Man(b1-4)GlcNAc(b1-4)GlcNAc
# Summary of the method: as §1
# [6] = biological target: Gal(b1-4)GlcNAc(b1-2)Man(a1-3)[Man(a1-6)]Man(b1-4)GlcNAc(b1-4)GlcNAc
# Summary of the method: as §1
# [7] = biological target: Gal(b1-4)GlcNAc(b1-2)Man(a1-6)Man(b1-4)GlcNAc(b1-4)GlcNAc
# Summary of the method: as §1
# [8] = biological target: Gal(b1-4)GlcNAc(b1-2)Man(a1-6)[GlcNAc(b1-2)Man(a1-3)]Man(b1-4)GlcNAc(b1-4)GlcNAc
# Summary of the method: as §1
# [9] = biological target: Gal(b1-4)GlcNAc(b1-2)Man(a1-6)[Man(a1-3)]Man(b1-4)GlcNAc(b1-4)GlcNAc
# Summary of the method: as §1
# [10] = biological target: Gal(b1-4)GlcNAc(b1-2)[Gal(b1-4)GlcNAc(b1-4)]Man(a1-3)[Gal(b1-4)GlcNAc(b1-2)Man(a1-6)]Man(b1-4)GlcNAc(b1-4)GlcNAc
# Summary of the method: as §1
# [11] = biological target: Gal(b1-4)GlcNAc(b1-2)[Gal(b1-4)GlcNAc(b1-4)]Man(a1-3)[Gal(b1-4)GlcNAc(b1-2)[Gal(b1-4)GlcNAc(b1-6)]Man(a1-6)]Man(b1-4)GlcNAc(b1-4)GlcNAc
# Summary of the method: as §1
# [12] = biological target: Gal(b1-4)GlcNAc(b1-3)Gal(b1-3)GlcNAc
# Summary of the method: as §1
# [13] = biological target: Gal(b1-4)GlcNAc(b1-3)Gal(b1-4)Glc
# Summary of the method: as §1
# [14] = biological target: Gal(b1-4)GlcNAc(b1-3)Gal(b1-4)GlcNAc
# Summary of the method: as §1
# [15] = biological target: Gal(b1-4)GlcNAc(b1-3)Gal(b1-4)GlcNAc(b1-3)Gal(b1-4)GlcNAc
# Summary of the method: as §1
# [16] = biological target: Gal(b1-4)GlcNAc(b1-3)Gal(b1-4)[Fuc(a1-3)]GlcNAc(b1-3)Gal(b1-4)[Fuc(a1-3)]GlcNAc
# Summary of the method: as §1
# [17] = biological target: Gal(b1-4)GlcNAc(b1-3)GalNAc
# Summary of the method: as §1
# [18] = biological target: Gal(b1-4)GlcNAc(b1-3)[Gal(b1-4)GlcNAc(b1-6)]Gal(b1-4)GlcNAc
# Summary of the method: as §1
# [19] = biological target: Gal(b1-4)GlcNAc(b1-3)[Gal(b1-4)GlcNAc(b1-6)]GalNAc
# Summary of the method: as §1
# [20] = biological target: Gal(b1-4)GlcNAc(b1-3)[GlcNAc(b1-6)]Gal(b1-4)GlcNAc
# Summary of the method: as §1
# [21] = biological target: Gal(b1-4)GlcNAc(b1-6)Gal(b1-4)GlcNAc
# Summary of the method: as §1
# [22] = biological target: Gal(b1-4)GlcNAc(b1-6)GalNAc
# Summary of the method: as §1
# [23] = biological target: Gal(b1-4)GlcNAc(b1-6)[Gal(b1-3)]GalNAc
# Summary of the method: as §1
# Gal3S(b1-3)GalNAc = biological target: Gal3S(b1-3)GalNAc
# Summary of the method: as §1
# Gal3S(b1-3)GlcNAc = biological target: Gal3S(b1-3)GlcNAc
# Summary of the method: as §1
# [24] = biological target: Gal3S(b1-3)[Fuc(a1-4)]GlcNAc
# Summary of the method: as §1
# Gal3S(b1-4)Glc = biological target: Gal3S(b1-4)Glc
# Summary of the method: as §1
# Gal3S(b1-4)Glc6S = biological target: Gal3S(b1-4)Glc6S
# Summary of the method: as §1
# Gal3S(b1-4)GlcNAc = biological target: Gal3S(b1-4)GlcNAc
# Summary of the method: as §1
# Gal3S(b1-4)GlcNAc6S = biological target: Gal3S(b1-4)GlcNAc6S
# Summary of the method: as §1
# [25] = biological target: Gal3S(b1-4)[Fuc(a1-3)]Glc
# Summary of the method: as §1
# [26] = biological target: Gal3S(b1-4)[Fuc(a1-3)]Glc6S
# Summary of the method: as §1
# Gal3S4S(b1-4)GlcNAc = biological target: Gal3S4S(b1-4)GlcNAc
# Summary of the method: as §1
# Gal3S6S(b1-4)GlcNAc = biological target: Gal3S6S(b1-4)GlcNAc
# Summary of the method: as §1
# Gal3S6S(b1-4)GlcNAc6S = biological target: Gal3S6S(b1-4)GlcNAc6S
# Summary of the method: as §1
# Gal4S(b1-4)GlcNAc = biological target: Gal4S(b1-4)GlcNAc
# Summary of the method: as §1
# Gal4S6S(b1-4)GlcNAc = biological target: Gal4S6S(b1-4)GlcNAc
# Summary of the method: as §1
# Gal6S(b1-4)Glc = biological target: Gal6S(b1-4)Glc
# Summary of the method: as §1
# Gal6S(b1-4)Glc6S = biological target: Gal6S(b1-4)Glc6S
# Summary of the method: as §1
# Gal6S(b1-4)GlcNAc = biological target: Gal6S(b1-4)GlcNAc
# Summary of the method: as §1
# Gal6S(b1-4)GlcNAc6S = biological target: Gal6S(b1-4)GlcNAc6S
# Summary of the method: as §1
# GalNAc(a1-3)Gal = biological target: GalNAc(a1-3)Gal
# Summary of the method: as §1
# GalNAc(a1-3)GalNAc = biological target: GalNAc(a1-3)GalNAc
# Summary of the method: as §1
# [27] = biological target: GalNAc(a1-3)GalNAc(a1-3)Gal(a1-4)Gal(b1-4)GlcNAc
# Summary of the method: as §1
# GalNAc(b1-3)Gal = biological target: GalNAc(b1-3)Gal
# Summary of the method: as §1
binder,measurement,setting,value
B1,glycan array binding signal (z-score),[1],2.97
same,glycan array binding signal (z-score),[2],1.75
same,glycan array binding signal (z-score),[3],2.48
same,glycan array binding signal (z-score),[4],1.64
same,glycan array binding signal (z-score),[5],1.24
same,glycan array binding signal (z-score),[6],1.45
same,glycan array binding signal (z-score),[7],0.574
same,glycan array binding signal (z-score),[8],0.478
same,glycan array binding signal (z-score),[9],0.159
same,glycan array binding signal (z-score),[10],5.5
same,glycan array binding signal (z-score),[11],6.78
same,glycan array binding signal (z-score),[12],0.232
same,glycan array binding signal (z-score),[13],0.621
same,glycan array binding signal (z-score),[14],1.18
same,glycan array binding signal (z-score),[15],1.8
same,glycan array binding signal (z-score),[16],0.541
same,glycan array binding signal (z-score),[17],-0.018
same,glycan array binding signal (z-score),[18],1.75
same,glycan array binding signal (z-score),[19],1.94
same,glycan array binding signal (z-score),[20],1.3
same,glycan array binding signal (z-score),[21],0.041
same,glycan array binding signal (z-score),[22],-0.121
same,glycan array binding signal (z-score),[23],-0.016
same,glycan array binding signal (z-score),Gal3S(b1-3)GalNAc,-0.327
same,glycan array binding signal (z-score),Gal3S(b1-3)GlcNAc,3.33
same,glycan array binding signal (z-score),[24],-0.317
same,glycan array binding signal (z-score),Gal3S(b1-4)Glc,0.38
same,glycan array binding signal (z-score),Gal3S(b1-4)Glc6S,1.75
same,glycan array binding signal (z-score),Gal3S(b1-4)GlcNAc,2.51
same,glycan array binding signal (z-score),Gal3S(b1-4)GlcNAc6S,4.69
same,glycan array binding signal (z-score),[25],-0.308
same,glycan array binding signal (z-score),[26],-0.286
same,glycan array binding signal (z-score),Gal3S4S(b1-4)GlcNAc,-0.179
same,glycan array binding signal (z-score),Gal3S6S(b1-4)GlcNAc,-0.317
same,glycan array binding signal (z-score),Gal3S6S(b1-4)GlcNAc6S,-0.319
same,glycan array binding signal (z-score),Gal4S(b1-4)GlcNAc,-0.322
same,glycan array binding signal (z-score),Gal4S6S(b1-4)GlcNAc,-0.3
same,glycan array binding signal (z-score),Gal6S(b1-4)Glc,-0.327
same,glycan array binding signal (z-score),Gal6S(b1-4)Glc6S,-0.312
same,glycan array binding signal (z-score),Gal6S(b1-4)GlcNAc,-0.327
same,glycan array binding signal (z-score),Gal6S(b1-4)GlcNAc6S,-0.256
same,glycan array binding signal (z-score),GalNAc(a1-3)Gal,-0.325
same,glycan array binding signal (z-score),GalNAc(a1-3)GalNAc,-0.323
same,glycan array binding signal (z-score),[27],-0.325
same,glycan array binding signal (z-score),GalNAc(b1-3)Gal,-0.334
